In the supplement of paper PMC11417369:
The list shows a part of the results.

System: PF3D7_0420300 AP2 domain 1 (GST-tagged)
Assay: gcPBM binding intensity (ln(normalized median fluorescence intensity)); higher = stronger DNA binding
Procedure, shortened: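 Alexa488 anti-GST antibody, scanned at 488 nm, detected GST-tagged P. falciparum DNA-binding domains that had been expressed in E. coli and incubated for 1 h on an Agilent 4 × 180k array. The array carried primer-extended double-stranded 36-bp intergenic genomic probes and negative controls. Binding intensity is the highest Masliner-normalised natural-log median intensity across replicate spots of either orientation of each probe.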

Row | Sequence | gcPBM binding intensity (ln)
1 | TATAAACATAATATTTAACACACATGAAGATGTATA [CACACA_site8252] | 9.31
2 | TATTTTGTTTTAAAAGTACACACTTTTAATTAGATT [CACACA_site1180] | 9.12
3 | ATAACAAAATGAAGAGTGCATTACCAAGTGGGTAAA [GTGCAC_site9450] | 9.52
4 | ATATTTAAGGCGTGTATGCACACGACTATTCCGTAT [CACACA_site1080] | 9.26
5 | TTAATTTGTTCTTACACACACATATAAATATATTTA [CACACA_site6676] | 9.82
6 | ATGATACTAAAAAATTGTACATATAACAAAAGGTAT [XGTACX_site2527] | 9.47
7 | CATATATTTTGAAACACACACATATATAATATACAT [CACACA_site1158] | 9.76
8 | TTTGTATAATACATGTGTACGTATTTTTATATAAAT [XGTACX_site8656] | 9.26
9 | TTATCATTATATAGTTGTACATATTTATTTATAAAA [XGTACX_site2310] | 9.07
10 | AGAACTAAAAGAACATGTACATAAATTCTAAATAAT [XGTACX_site4084] | 9.27
11 | ACATAAATAAATTAATGTACATATATATTTGTATAT [XGTACX_site3160] | 9.26
12 | TATATATATATATATACACACACACCCATATATATA [CACACA_site8812] | 9.94
13 | TTTTTTTTTTTTTCAAGTACATATATATATATATAA [XGTACX_site2098] | 9
14 | TTTTTATATGTTAAGTGTACGTTTACATTTTATACT [XGTACX_site3485] | 9.24
15 | ATAAACATGGAAATGTATTAAAAGCAAGTATATAAA [XGTACX_negctrl_site516] | 9.47
16 | TAAATTATAACGTGCACACATATTTAAAATGAAATG [CACACA_site2820] | 9.41
17 | TGTTGTTACAGATATACACACATATATATATTATAT [CACACA_site5342] | 9.52
18 | TTGGGTGCATATATTTGTACACATTATTTCTATTTT [XGTACX_site3688] | 9.34
19 | AAAAAAAATTTCTTCACACATAAATAAATAAATAAA [CACACA_site4841] | 8.93
20 | TGCATTTATATCTTCACACATATATATATATATATA [CACACA_site4516] | 9.45
21 | ATGTAATAAAATAATTGTACAATGTAACTAATTTTT [XGTACX_site2871] | 9.36
22 | ATTAAAAATTCAATTGCACACGCACATATTTTAATA [CACACA_site8618] | 9.22

Row | Sequence | gcPBM binding intensity (ln)
23 | ATATGTATATATACATGTACATATTTTTCCTTTCTT [XGTACX_site149] | 9.33
24 | AAATGTAAATTTATCCGTACATATATATATTTATAT [XGTACX_site7024] | 9.25
25 | AAAAAAAAAAAAATATATATATATATATATATATAT [GTGCAC_negctrl_site212] | 8.76
26 | AAAAAAAAAAATTAAAGTACAAAAATATTAAAAATA [XGTACX_site6517] | 9.19
27 | TATACATACATTAGACGTACACATTTTACCTACACC [XGTACX_site3586] | 9.48
28 | TATTATGTATGTATATGTACGTATCTTATTTTATTT [XGTACX_site5008] | 9.52
29 | TTTTTTGTATTTTTCACACACACATAAGTAAACAAT [CACACA_site1900] | 9.88
30 | AAATTATTATATATATGTACGTATAATGTATTTTGT [XGTACX_site2903] | 9.38
31 | AAATATAGAATACATGTGCACATAATATATATATAT | 9.49
32 | AATACAATTTATAACACACACACAAGAATACCTATA [CACACA_site6705] | 10.3
33 | TTTGTATCTATATATTGTACGAATTACTTTCATTTA [XGTACX_site4785] | 9.26
34 | TCTTTTTAAGGGATTTTTTTTTTTTTTTTAAAAAGA [CACACA_negctrl_site1274] | 8.64
35 | ATATATATATACATATGTACATATATATTTATACAT [XGTACX_site2463] | 9.26
36 | TACACAGACGGACACACACACACACTAGAAAAAAAA [CACACA_site4435] | 10
37 | AATATAATATAATGCACACATAAAAAAAAAAAAATC [CACACA_site1303] | 9.74
38 | GCTAAACAATAGTTTGCACACAATTTAAATATATAT [CACACA_site193] | 9.28
39 | AATGCACTATTTAAAAGTACACATAAGAAAAGCATA [XGTACX_site1739] | 9.42
40 | AGTATAAATATATTATGTACATATATATTATACTTA [XGTACX_site2623] | 9.09
41 | TTATATACATTAAATGAACACACATAAATAAATTAC [CACACA_site8927] | 9.68
42 | ATTTTTTTTATGTATTATGCTTTTATATCCTTCATA [CACACA_negctrl_site1244] | 9.67
43 | ATTTCTTTTACATTTACATGCAATGCTCTATAGATA [TGCATGCA_site62] | 9.29
44 | AAAGAATTTGCATATACACACAAAAAAATAAATACA [CACACA_site4373] | 9.64

Row | Sequence | gcPBM binding intensity (ln)
45 | CTTCTTTTGTGATAAAGTACAAATATTTTGAAATAT [XGTACX_site1156] | 8.93
46 | TTTTCTATAAGATTTGCACACAACTTATTCTATTAA [CACACA_site3752] | 9.41
47 | ATAAATAAATAAATAAATATATATATGAAATAATGT [TGCATGCA_negctrl_site12] | 9.49
48 | AAAAAATATAAAACGAGTACATATATAATAAGCAAA [XGTACX_site1360] | 9.74
49 | TTTATTCTCCACACCCGTACACATTTTTTTTGCATA [XGTACX_site5615] | 9.71
50 | AAAAAAAAAAAAAACACACACACACGCAGATATATA [CACACA_site6672] | 10.1
51 | ATTATAGACAACTCTTTTTCTAAACTATTTTATTTT [CACACA_negctrl_site1754] | 9.43
52 | CATAATATTTGTGAAAGTACTTATTTTACAATAGGG [XGTACX_site5004] | 9.1
53 | TTTCTTAAAATATAAAGTACTAAAATGAAAATATAT [XGTACX_site2173] | 9.04
54 | AAATAAAGAAATATATGTACATATATATATATATAT [XGTACX_site5131] | 9.33
55 | TAGCCAAAAGGATATGCACACACACCCACATATATA [CACACA_site8684] | 9.87
56 | TAAGATCCTTAAAACGCATGCAGTATTTTTATTTCT [TGCATGCA_site532] | 9.04
57 | CATATAATTATTTTCACACATATAACTACATCTATA [CACACA_site5915] | 9.36
58 | ATATAAATAAAAAAAAGTACATAATATATAAAAATA [XGTACX_site3065] | 9.56
59 | CTTTTACGTTTAGGATGTACATTTAAAAAAAAAGAA [XGTACX_site8032] | 8.91
60 | AATAAATATTAAATGACAAAAAAAAAAAAAAAAGGG [XGTACX_negctrl_site15] | 9.71
61 | TATAATCCATAAGAAGCACACACATATATATATATT [CACACA_site8394] | 9.76
62 | TTAAGATGCATAAATACATGCAAAGTAAATAATTCT [TGCATGCA_site517] | 9.1
63 | TTAGCAGGACGTTTGGTGCACGTACTGTTTTTCTTT [GTGCAC_site9856] | 9.27
64 | TATATATATATATATATATATATATATATATATATT [CACACA_negctrl_site1440] | 8.8
65 | CATTGACCATTAATTTGTACACAAGGGGAAATGAGG [XGTACX_site1756] | 9.24
66 | TCTTTCTGCTCTTATACACACAAATAAAGATTTTTT [CACACA_site2700] | 9.51

Row | Sequence | gcPBM binding intensity (ln)
67 | ATGAAATTTTCATATTGTACTATTAAAAATATATTT [XGTACX_site1989] | 9
68 | TGTAGATTTTGTAACACACACATATAAATACAGATA [CACACA_site5343] | 9.73
69 | TAAGGGATATGTATATGTACATACAAATATATATAA [XGTACX_site2892] | 9.11
70 | AAATGTAATAAATATACACACACAAATATATATATA [CACACA_site8754] | 9.91
71 | TTTGCTTCGATATATTCACACATTTTTTTTCTTATT [CACACA_site4499] | 9.61
72 | AATTTCATTTTTAGAAGTACATTTATATTAAAAATC [XGTACX_site2888] | 8.81
73 | GACACCCATAAATATACACACGCACAACACAAAATA [CACACA_site8944] | 9.59
74 | CTTACCAAAAAACACACACACACAAAATATATAAAT [CACACA_site1870] | 10.3
75 | TTATTTTTTAGTAGTACACACTTTTTGTACCTTTTA [CACACA_site4503] | 9.45
76 | AATAAAAAAAAAAAAAAAAAAAAAAAGACACTAAAA [CACACA_negctrl_site1075] | 9.33
77 | CTAAAAGAACATGTGTGTACTTATGTTCTCTTTTTT [XGTACX_site5983] | 9.23
78 | TATTCCAAAAATGTGTGTACATAAATACAATATTAT [XGTACX_site2653] | 9.48
79 | AAAAAGAAGAATAATACACACAAATTATTTTATATA [CACACA_site1919] | 9.64
80 | TATAATAAATGGACGGTGCGACATGACCATATGTGT [GTGCAC_site9476] | 9.56
81 | ATAATATATATACAAACACACAATTGCGTCCACATT [CACACA_site8515] | 9.72
82 | TTATTTTCTTTTTCTTGTACACACATAATATGGATG [XGTACX_site1481] | 9.69
83 | TTGTTAATAAAAATATTGGAAAGTTTATAAAATTTT [CACACA_negctrl_site1487] | 8.9
84 | TATATTAAAGGGGTTTCACACACATGTATAATTAAT [CACACA_site7950] | 9.52
85 | TATTATTTAATCAAATGTACATAGAAAATGTATGTA [XGTACX_site4433] | 9.08
86 | ATGTAAAATTAATATTGTACTTTTCCATCATGATAC [XGTACX_site2669] | 9.14
87 | AATAGGAAAGATTTTGCATGTGATATAAGTAATTTT [TGCATGCA_site657] | 9.27
88 | TTTATATGATACACACGTACATATACACATATACAC [XGTACX_site8123] | 9.62
